In all, about 3,200 compounds went through this assay and about 110 (3.4%) showed an effect of 50% or more. The list shows a part of the results.
test system: T1, V. cholerae SAD30; parameters: species or system S. aureus MSSA476 (TSB) or V. cholerae SAD30 (LB); 384-well bacterial growth screen at 25 uM, OD600 relative to DMSO control; details: relative growth, OD600, LB; 25 µM; inhibitor
T1 construct: SAD30

Q: How did the “% of control remaining” value turn out when `N#CC(=Cc1cc(F)ccc1F)C(=O)NC1CCCC1` [8-I12, 2-cyano-N-cyclopentyl-3-(2,5-difluorophenyl)prop-2-enamide] was run?
A: 68.3209%

Q: `C=CC(=O)N1CCC(c2nc3c(s2)CCC3)CC1` [3-I22, 1-(4-{4H,5H,6H-cyclopenta[d][1,3]thiazol-2-yl}piperidin-1-yl)prop-2-en-1-one] was tested. Which “% of control remaining” value did it give?
A: 101.088%

Q: `O=C(CCl)NSc1ccc([N+](=O)[O-])cc1` [4-P13, 2-chloro-N-[(4-nitrophenyl)sulfanyl]acetamide] was tested. Which “% of control remaining” value did it give?
A: 87.6429%

Q: For `Cc1ccc(N2CCCC2CNC(=O)CCl)cc1` (stereo not drawn) [7-H14, 2-chloro-N-{[1-(4-methylphenyl)pyrrolidin-2-yl]methyl}acetamide], which “% of control remaining” value is on record?
A: 79.0352%

Q: How did the “% of control remaining” value turn out when `Cc1ccc(N(CCC#N)C(=O)CCl)cc1` [4-M15, 2-chloro-N-(2-cyanoethyl)-N-(4-methylphenyl)acetamide] was run?
A: 100.41%

Q: Which “% of control remaining” value does the source give for `C=CC(=O)NCc1ccccc1S(=O)(=O)NC` [1-N03, N-{[2-(methylsulfamoyl)phenyl]methyl}prop-2-enamide] here?
A: 97.0105%

Q: `C=CC(=O)N(Cc1cn(C)nc1-c1ccc(F)cc1)C1CC(C)C1` (stereo not drawn) [1-P09, N-{[3-(4-fluorophenyl)-1-methyl-1H-pyrazol-4-yl]methyl}-N-(3-methylcyclobutyl)prop-2-enamide] was tested. Which “% of control remaining” value did it give?
A: 89.9851%

Q: With `Cc1cc(C)c(NC(=O)C(C#N)=Cc2ccc(C(C)(C)C)cc2)c(C)c1` [8-I13, 3-(4-tert-butylphenyl)-2-cyano-N-(2,4,6-trimethylphenyl)prop-2-enamide] as the compound, how does the “% of control remaining” value read?
A: 81.1013%

Q: Which “% of control remaining” value does the source give for `COc1cc(C=C(C#N)C(=O)Nc2cccc(C)c2)c2c(c1)CC(C)O2` (stereo not drawn) [8-N22, 2-cyano-3-(5-methoxy-2-methyl-2,3-dihydro-1-benzofuran-7-yl)-N-(3-methylphenyl)prop-2-enamide] here?
A: 77.7022%

Q: How did the “% of control remaining” value turn out when `C=CC(=O)NC(C)c1cn(-c2ccccc2)nn1` (stereo not drawn) [1-N04, N-[1-(1-phenyl-1H-1,2,3-triazol-4-yl)ethyl]prop-2-enamide] was run?
A: 110.893%

Q: `O=C(CCl)Nc1ncc(Cc2ccccc2Cl)s1` [4-P07, 2-chloro-N-{5-[(2-chlorophenyl)methyl]-1,3-thiazol-2-yl}acetamide] was tested. Which “% of control remaining” value did it give?
A: 93.5087%

Q: `C=CC(=O)N1CCS(=O)(=O)N2CCCC12` (stereo not drawn) [3-H18, 1-(prop-2-enoyl)-hexahydro-1H-4lambda6-pyrrolo[1,2-b][1,2,4]thiadiazine-4,4-dione] was tested. Which “% of control remaining” value did it give?
A: 91.5604%

Q: Which “% of control remaining” value does the source give for `Cc1cc(C(=O)CCl)c(C)n1CC(N)=O` [10-O16, 2-[3-(2-chloroacetyl)-2,5-dimethyl-1H-pyrrol-1-yl]acetamide] here?
A: 94.6035%

Q: For `Cc1nsc(N2CCN(C(=O)C(C)Cl)CC2)c1C#N` (stereo not drawn) [6-H15, 5-[4-(2-chloropropanoyl)piperazin-1-yl]-3-methyl-1,2-thiazole-4-carbonitrile], which “% of control remaining” value is on record?
A: 89.3355%

Q: Which “% of control remaining” value does the source give for `Cc1cccc(C)c1NC(=O)C(C#N)=Cc1ccsc1` [8-I07, 2-cyano-N-(2,6-dimethylphenyl)-3-(thiophen-3-yl)prop-2-enamide] here?
A: 73.2155%

Q: With `C=CC(=O)NC1CCOC1C` (stereo not drawn) [1-F06, N-(2-methyloxolan-3-yl)prop-2-enamide] as the compound, how does the “% of control remaining” value read?
A: 109.176%

Q: `Cc1ccc(C=C(C#N)C(=O)Nc2ccc(C(=O)N(C)C)cc2)o1` [9-P14, 4-[2-cyano-3-(5-methylfuran-2-yl)prop-2-enamido]-N,N-dimethylbenzamide] was tested. Which “% of control remaining” value did it give?
A: 84.0925%

Q: How did the “% of control remaining” value turn out when `CCn1ccc(CN(C)C(=O)CCl)n1` [5-K06, 2-chloro-N-[(1-ethyl-1H-pyrazol-3-yl)methyl]-N-methylacetamide] was run?
A: 100.2%

Q: With `Cc1ccsc1C=C(C#N)C(=O)N1CCN(c2ccccc2)CC1` [8-B13, 3-(3-methylthiophen-2-yl)-2-(4-phenylpiperazine-1-carbonyl)prop-2-enenitrile] as the compound, how does the “% of control remaining” value read?
A: 54.3168%

Q: With `C=CC(=O)NCCc1nc(C)no1` [3-N19, N-[2-(3-methyl-1,2,4-oxadiazol-5-yl)ethyl]prop-2-enamide] as the compound, how does the “% of control remaining” value read?
A: 97.03%

Q: Which “% of control remaining” value does the source give for `COc1ccc2cc(C=C(C#N)C(=O)NCc3ccccc3)ccc2c1` [9-D07, N-benzyl-2-cyano-3-(6-methoxynaphthalen-2-yl)prop-2-enamide] here?
A: 82.4609%

Q: `CCn1cc(CN(C(=O)CCl)[C@H]2CC[C@H](C)CC2)cn1` [5-G16, 2-chloro-N-[(1-ethyl-1H-pyrazol-4-yl)methyl]-N-[(1r,4r)-4-methylcyclohexyl]acetamide] was tested. Which “% of control remaining” value did it give?
A: 98.1822%

Q: `COc1ccc(Cl)cc1NC(=O)C(C)Cl` (stereo not drawn) [6-G16, 2-chloro-N-(5-chloro-2-methoxyphenyl)propanamide] was tested. Which “% of control remaining” value did it give?
A: 89.3355%

Q: Which “% of control remaining” value does the source give for `CC(Cl)C(=O)N(C)C1CCN(c2ccccc2Cl)C1=O` (stereo not drawn) [7-C16, 2-chloro-N-[1-(2-chlorophenyl)-2-oxopyrrolidin-3-yl]-N-methylpropanamide] here?
A: 76.1275%

Q: How did the “% of control remaining” value turn out when `CC(Cl)C(=O)NC1CCCc2c1cnn2Cc1ccccc1` (stereo not drawn) [7-G13, N-(1-benzyl-4,5,6,7-tetrahydro-1H-indazol-4-yl)-2-chloropropanamide] was run?
A: 70.8409%

Q: How did the “% of control remaining” value turn out when `COC(=O)c1c(NC(=O)CCl)sc2c1CCC(C(C)(C)C)C2` (stereo not drawn) [4-J19, methyl 6-tert-butyl-2-(2-chloroacetamido)-4,5,6,7-tetrahydro-1-benzothiophene-3-carboxylate] was run?
A: 99.7196%

Q: With `C=CC(=O)NCCc1csc(C)n1` [1-D13, N-[2-(2-methyl-1,3-thiazol-4-yl)ethyl]prop-2-enamide] as the compound, how does the “% of control remaining” value read?
A: 86.9955%

Q: With `C=CC(=O)Nc1cccc(-c2nnnn2C(C)C)c1` [1-A16, N-{3-[1-(propan-2-yl)-1H-1,2,3,4-tetrazol-5-yl]phenyl}prop-2-enamide] as the compound, how does the “% of control remaining” value read?
A: 87.145%

Q: With `CC1CCCN(C(=O)C(NC(=O)CCl)c2cnn(C)c2)C1` (stereo not drawn) [6-H05, 2-chloro-N-[1-(1-methyl-1H-pyrazol-4-yl)-2-(3-methylpiperidin-1-yl)-2-oxoethyl]acetamide] as the compound, how does the “% of control remaining” value read?
A: 100.559%

Q: With `CC(Cl)C(=O)NCC1CN(c2ccc(Cl)cc2)CCO1` (stereo not drawn) [6-F07, 2-chloro-N-{[4-(4-chlorophenyl)morpholin-2-yl]methyl}propanamide] as the compound, how does the “% of control remaining” value read?
A: 85.0886%

Q: How did the “% of control remaining” value turn out when `Cc1cc(C)cc(-n2c(C)cc(C(=O)CCl)c2C)c1` [10-E04, 2-chloro-1-[1-(3,5-dimethylphenyl)-2,5-dimethyl-1H-pyrrol-3-yl]ethan-1-one] was run?
A: 92.1099%

Q: With `CC(Cl)C(=O)N(C)Cc1cc(C(C)(C)C)[nH]n1` (stereo not drawn) [7-B21, N-[(5-tert-butyl-1H-pyrazol-3-yl)methyl]-2-chloro-N-methylpropanamide] as the compound, how does the “% of control remaining” value read?
A: 82.3393%

Q: How did the “% of control remaining” value turn out when `N#CC(=Cc1ccc(O)cc1)C(=O)NCCc1c(F)cccc1F` [9-I16, 2-cyano-N-[2-(2,6-difluorophenyl)ethyl]-3-(4-hydroxyphenyl)prop-2-enamide] was run?
A: 83.8205%

Q: With `O=C(CCl)N(Cc1ccccc1)c1nc2c(s1)CCCC2` [4-C17, N-benzyl-2-chloro-N-(4,5,6,7-tetrahydro-1,3-benzothiazol-2-yl)acetamide] as the compound, how does the “% of control remaining” value read?
A: 73.4958%

Q: `Cc1nc(C(NC(=O)CCl)c2ccccc2)no1` (stereo not drawn) [7-F08, 2-chloro-N-[(5-methyl-1,2,4-oxadiazol-3-yl)(phenyl)methyl]acetamide] was tested. Which “% of control remaining” value did it give?
A: 81.5463%

Q: With `CC(Cl)C(=O)NCc1cccs1` (stereo not drawn) [4-P11, 2-chloro-N-[(thiophen-2-yl)methyl]propanamide] as the compound, how does the “% of control remaining” value read?
A: 115.247%

Q: Which “% of control remaining” value does the source give for `C=CC(=O)NCCC1CCCS1(=O)=O` (stereo not drawn) [3-C12, N-[2-(1,1-dioxo-1lambda6-thiolan-2-yl)ethyl]prop-2-enamide] here?
A: 97.03%

Q: For `C=CC(=O)N1CCN(Cc2ccon2)CC1` [1-N20, 1-{4-[(1,2-oxazol-3-yl)methyl]piperazin-1-yl}prop-2-en-1-one], which “% of control remaining” value is on record?
A: 108.685%

Q: For `C=CC(=O)N1CCC(C(=O)NCC(C)(C)C=C)CC1` [2-G04, N-(2,2-dimethylbut-3-en-1-yl)-1-(prop-2-enoyl)piperidine-4-carboxamide], which “% of control remaining” value is on record?
A: 100.077%

Q: How did the “% of control remaining” value turn out when `COc1cc(C=C(C#N)C(=O)NC(C)C)sn1` [9-N12, 2-cyano-3-(3-methoxy-1,2-thiazol-5-yl)-N-(propan-2-yl)prop-2-enamide] was run?
A: 88.1713%

Q: How did the “% of control remaining” value turn out when `CCOc1ccc(NC(=O)C(C#N)=Cc2ccc(F)cc2)cc1` [8-N07, 2-cyano-N-(4-ethoxyphenyl)-3-(4-fluorophenyl)prop-2-enamide] was run?
A: 74.7111%

Q: For `O=C(CCl)c1c[nH]c2ccc(F)cc12` [10-O11, 2-chloro-1-(5-fluoro-1H-indol-3-yl)ethan-1-one], which “% of control remaining” value is on record?
A: 23.3781%

Q: For `C=CC(=O)NCc1ccc(C(=O)N2CCN(C(C)=O)CC2)cc1` [3-G17, N-{[4-(4-acetylpiperazine-1-carbonyl)phenyl]methyl}prop-2-enamide], which “% of control remaining” value is on record?
A: 90.8546%

Q: Which “% of control remaining” value does the source give for `C=CC(=O)NCc1nnnn1-c1ccc(F)cc1` [1-M22, N-{[1-(4-fluorophenyl)-1H-1,2,3,4-tetrazol-5-yl]methyl}prop-2-enamide] here?
A: 95.2167%

Q: Which “% of control remaining” value does the source give for `C=CC(=O)N1CCC(C(=O)N2CCC(CC(=O)N(C)C)CC2)CC1` [2-H09, N,N-dimethyl-2-{1-[1-(prop-2-enoyl)piperidine-4-carbonyl]piperidin-4-yl}acetamide] here?
A: 92.6662%
